# Results taken from article PMC12820563.
# The list shows a part of the results. The list includes weakly bound sequences.
# Target: T1, MBP-FoxP3dN (UniProt Q99JB6)
# T1 sequence: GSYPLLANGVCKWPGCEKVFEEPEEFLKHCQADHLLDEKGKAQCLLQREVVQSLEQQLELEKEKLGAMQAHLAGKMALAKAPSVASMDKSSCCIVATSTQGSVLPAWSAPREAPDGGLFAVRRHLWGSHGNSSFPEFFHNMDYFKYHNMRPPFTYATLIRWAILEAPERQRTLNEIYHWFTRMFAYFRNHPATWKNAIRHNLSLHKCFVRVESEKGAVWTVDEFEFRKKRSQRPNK
# Experiment: PD-seq (MBP pull-down with sequencing)
# Settings: 20 mM Tris-HCl pH 7.5, 100 mM NaCl, 1.5 mM MgCl2, 0.4 uM protein, 0.1 uM dsDNA library, 30 min, room temperature, amylose pull-down; high values mean tight binding; double strand, one strand shown
row,Sequence,binding signal (RPM ratio (pull-down/input))
1,GATGATTGTTCTCCCAGCTGATGAATTAGGCTGATCGAGTAAACAAATTTTCCTAATCTTTCTGTTCAAGCGCCATCTAC,0.537
2,GATGATTGTTCTCCCAGCTGATGAATTGTCTTCGTCGAGTAAACAAATTTTCCTAATCTTTCTGTTCAAGCGCCATCTAC,0.427
3,GATGATTGTTCTCCCAGCTGATGAATTCTCGTCGTCGAGTAAACAAATTTTCCTAATCTTTCTGTTCAAGCGCCATCTAC,0.364
4,GATGATTGTTCTCCCAGCTGATGAATTATGGCAATCGAGTAAACAAATTTTCCTAATCTTTCTGTTCAAGCGCCATCTAC,2.38
5,GATGATTGTTCTCCCAGCTGATGAATTGGAGGAATCGAGTAAACAAATTTTCCTAATCTTTCTGTTCAAGCGCCATCTAC,0.191
6,GATGATTGTTCTCCCAGCTGATGAATTAGTTATCTCGAGTAAACAAATTTTCCTAATCTTTCTGTTCAAGCGCCATCTAC,3.59
7,GATGATTGTTCTCCCAGCTGATGAATTGATTGTGTCGAGTAAACAAATTTTCCTAATCTTTCTGTTCAAGCGCCATCTAC,3.72
8,GATGATTGTTCTCCCAGCTGATGAATTGAACTAATCGAGTAAACAAATTTTCCTAATCTTTCTGTTCAAGCGCCATCTAC,0.282
9,GATGATTGTTCTCCCAGCTGATGAATTGAGAAAATCGAGTAAACAAATTTTCCTAATCTTTCTGTTCAAGCGCCATCTAC,0.138
10,GATGATTGTTCTCCCAGCTGATGAATTCCTGTGGTCGAGTAAACAAATTTTCCTAATCTTTCTGTTCAAGCGCCATCTAC,0.303
11,GATGATTGTTCTCCCAGCTGATGAATTCATTAGGTCGAGTAAACAAATTTTCCTAATCTTTCTGTTCAAGCGCCATCTAC,0.554
12,GATGATTGTTCTCCCAGCTGATGAATTATGACACTCGAGTAAACAAATTTTCCTAATCTTTCTGTTCAAGCGCCATCTAC,2.61
13,GATGATTGTTCTCCCAGCTGATGAATTCTATTCGTCGAGTAAACAAATTTTCCTAATCTTTCTGTTCAAGCGCCATCTAC,0.615
14,GATGATTGTTCTCCCAGCTGATGAATTTAGACGGTCGAGTAAACAAATTTTCCTAATCTTTCTGTTCAAGCGCCATCTAC,0.295
15,GATGATTGTTCTCCCAGCTGATGAATTCGGCCGTTCGAGTAAACAAATTTTCCTAATCTTTCTGTTCAAGCGCCATCTAC,0.768
16,GATGATTGTTCTCCCAGCTGATGAATTCGGAGCGTCGAGTAAACAAATTTTCCTAATCTTTCTGTTCAAGCGCCATCTAC,0.401
17,GATGATTGTTCTCCCAGCTGATGAATTTGACAGTTCGAGTAAACAAATTTTCCTAATCTTTCTGTTCAAGCGCCATCTAC,0.622
18,GATGATTGTTCTCCCAGCTGATGAATTGCAGCAATCGAGTAAACAAATTTTCCTAATCTTTCTGTTCAAGCGCCATCTAC,2.72
19,GATGATTGTTCTCCCAGCTGATGAATTCCTCGGTTCGAGTAAACAAATTTTCCTAATCTTTCTGTTCAAGCGCCATCTAC,0.27
20,GATGATTGTTCTCCCAGCTGATGAATTCCACTAGTCGAGTAAACAAATTTTCCTAATCTTTCTGTTCAAGCGCCATCTAC,0.307
21,GATGATTGTTCTCCCAGCTGATGAATTTCACCCGTCGAGTAAACAAATTTTCCTAATCTTTCTGTTCAAGCGCCATCTAC,0.289

row,Sequence,binding signal (RPM ratio (pull-down/input))
1,GATGATTGTTCTCCCAGCTGATGAATTATCATACTCGAGTAAACAAATTTTCCTAATCTTTCTGTTCAAGCGCCATCTAC,0.447
2,GATGATTGTTCTCCCAGCTGATGAATTGGATTTGTCGAGTAAACAAATTTTCCTAATCTTTCTGTTCAAGCGCCATCTAC,1.72
3,GATGATTGTTCTCCCAGCTGATGAATTATAATCTTCGAGTAAACAAATTTTCCTAATCTTTCTGTTCAAGCGCCATCTAC,0.402
4,GATGATTGTTCTCCCAGCTGATGAATTCCGACGCTCGAGTAAACAAATTTTCCTAATCTTTCTGTTCAAGCGCCATCTAC,0.455
5,GATGATTGTTCTCCCAGCTGATGAATTGAGCGAGTCGAGTAAACAAATTTTCCTAATCTTTCTGTTCAAGCGCCATCTAC,0.522
6,GATGATTGTTCTCCCAGCTGATGAATTAGCAGCTTCGAGTAAACAAATTTTCCTAATCTTTCTGTTCAAGCGCCATCTAC,0.529
7,GATGATTGTTCTCCCAGCTGATGAATTGGCCACTTCGAGTAAACAAATTTTCCTAATCTTTCTGTTCAAGCGCCATCTAC,0.95
8,GATGATTGTTCTCCCAGCTGATGAATTGAACTCTTCGAGTAAACAAATTTTCCTAATCTTTCTGTTCAAGCGCCATCTAC,0.264
9,GATGATTGTTCTCCCAGCTGATGAATTGAAGGATTCGAGTAAACAAATTTTCCTAATCTTTCTGTTCAAGCGCCATCTAC,0.266
10,GATGATTGTTCTCCCAGCTGATGAATTAAAGCGATCGAGTAAACAAATTTTCCTAATCTTTCTGTTCAAGCGCCATCTAC,0.663
11,GATGATTGTTCTCCCAGCTGATGAATTTGTGGGATCGAGTAAACAAATTTTCCTAATCTTTCTGTTCAAGCGCCATCTAC,1.41
12,GATGATTGTTCTCCCAGCTGATGAATTTAAATTCTCGAGTAAACAAATTTTCCTAATCTTTCTGTTCAAGCGCCATCTAC,0.45
13,GATGATTGTTCTCCCAGCTGATGAATTGGTCTCCTCGAGTAAACAAATTTTCCTAATCTTTCTGTTCAAGCGCCATCTAC,0.361
14,GATGATTGTTCTCCCAGCTGATGAATTACATCTCTCGAGTAAACAAATTTTCCTAATCTTTCTGTTCAAGCGCCATCTAC,0.727
15,GATGATTGTTCTCCCAGCTGATGAATTTCGTTCTTCGAGTAAACAAATTTTCCTAATCTTTCTGTTCAAGCGCCATCTAC,0.565
16,GATGATTGTTCTCCCAGCTGATGAATTCCGTAGATCGAGTAAACAAATTTTCCTAATCTTTCTGTTCAAGCGCCATCTAC,0.337
17,GATGATTGTTCTCCCAGCTGATGAATTGAAGAATTCGAGTAAACAAATTTTCCTAATCTTTCTGTTCAAGCGCCATCTAC,0.597
18,GATGATTGTTCTCCCAGCTGATGAATTTATATCCTCGAGTAAACAAATTTTCCTAATCTTTCTGTTCAAGCGCCATCTAC,1.61
19,GATGATTGTTCTCCCAGCTGATGAATTCACAGGATCGAGTAAACAAATTTTCCTAATCTTTCTGTTCAAGCGCCATCTAC,0.199
20,GATGATTGTTCTCCCAGCTGATGAATTGATGGCCTCGAGTAAACAAATTTTCCTAATCTTTCTGTTCAAGCGCCATCTAC,0.732
21,GATGATTGTTCTCCCAGCTGATGAATTTCAGATATCGAGTAAACAAATTTTCCTAATCTTTCTGTTCAAGCGCCATCTAC,0.319

row,Sequence,binding signal (RPM ratio (pull-down/input))
1,GATGATTGTTCTCCCAGCTGATGAATTAGCACAGTCGAGTAAACAAATTTTCCTAATCTTTCTGTTCAAGCGCCATCTAC,0.346
2,GATGATTGTTCTCCCAGCTGATGAATTTTGAATTTCGAGTAAACAAATTTTCCTAATCTTTCTGTTCAAGCGCCATCTAC,1.67
3,GATGATTGTTCTCCCAGCTGATGAATTAGCAAAGTCGAGTAAACAAATTTTCCTAATCTTTCTGTTCAAGCGCCATCTAC,0.236
4,GATGATTGTTCTCCCAGCTGATGAATTCCCTGTTTCGAGTAAACAAATTTTCCTAATCTTTCTGTTCAAGCGCCATCTAC,0.346
5,GATGATTGTTCTCCCAGCTGATGAATTTGCATTATCGAGTAAACAAATTTTCCTAATCTTTCTGTTCAAGCGCCATCTAC,4.81
6,GATGATTGTTCTCCCAGCTGATGAATTCCCTCGATCGAGTAAACAAATTTTCCTAATCTTTCTGTTCAAGCGCCATCTAC,0.23
7,GATGATTGTTCTCCCAGCTGATGAATTGAAAGTTTCGAGTAAACAAATTTTCCTAATCTTTCTGTTCAAGCGCCATCTAC,0.264
8,GATGATTGTTCTCCCAGCTGATGAATTCATGGAATCGAGTAAACAAATTTTCCTAATCTTTCTGTTCAAGCGCCATCTAC,0.239
9,GATGATTGTTCTCCCAGCTGATGAATTTTTACGATCGAGTAAACAAATTTTCCTAATCTTTCTGTTCAAGCGCCATCTAC,0.226
10,GATGATTGTTCTCCCAGCTGATGAATTGCCACTATCGAGTAAACAAATTTTCCTAATCTTTCTGTTCAAGCGCCATCTAC,2.31
11,GATGATTGTTCTCCCAGCTGATGAATTCAACTAATCGAGTAAACAAATTTTCCTAATCTTTCTGTTCAAGCGCCATCTAC,0.338
12,GATGATTGTTCTCCCAGCTGATGAATTGGTAGCTTCGAGTAAACAAATTTTCCTAATCTTTCTGTTCAAGCGCCATCTAC,0.798
13,GATGATTGTTCTCCCAGCTGATGAATTGAGGATCTCGAGTAAACAAATTTTCCTAATCTTTCTGTTCAAGCGCCATCTAC,0.274
14,GATGATTGTTCTCCCAGCTGATGAATTTCCTAATTCGAGTAAACAAATTTTCCTAATCTTTCTGTTCAAGCGCCATCTAC,0.281
15,GATGATTGTTCTCCCAGCTGATGAATTAAAATTATCGAGTAAACAAATTTTCCTAATCTTTCTGTTCAAGCGCCATCTAC,0.442
16,GATGATTGTTCTCCCAGCTGATGAATTCAATGGTTCGAGTAAACAAATTTTCCTAATCTTTCTGTTCAAGCGCCATCTAC,1.23
17,GATGATTGTTCTCCCAGCTGATGAATTAACGGGATCGAGTAAACAAATTTTCCTAATCTTTCTGTTCAAGCGCCATCTAC,0.282
18,GATGATTGTTCTCCCAGCTGATGAATTGTAACTGTCGAGTAAACAAATTTTCCTAATCTTTCTGTTCAAGCGCCATCTAC,0.769
19,GATGATTGTTCTCCCAGCTGATGAATTGCCGTATTCGAGTAAACAAATTTTCCTAATCTTTCTGTTCAAGCGCCATCTAC,1.46
20,GATGATTGTTCTCCCAGCTGATGAATTATCGTCATCGAGTAAACAAATTTTCCTAATCTTTCTGTTCAAGCGCCATCTAC,0.67
21,GATGATTGTTCTCCCAGCTGATGAATTTGCCTGATCGAGTAAACAAATTTTCCTAATCTTTCTGTTCAAGCGCCATCTAC,0.579
